Measurements from the RNAGym collection of RNA variant scans (doi:10.7554/elife.90254).
The source gives no read counts; variants with many changes may rest on few reads.

B1: LINE1-mini (parent)
chain: GGCAGAGCUCAACACAGCGUGGCAAAGUGGCUGUGGCUAGACUGCC

Variants of: B1
Assay: self-cleavage, relative activity (ratio to wild type); higher = more cleavage; in vitro, sequencing; the parent is a self-cleaving ribozyme

| Variant | self-cleavage |
| --- | --- |
| GGCAGUGCUCAACACAGCGCGGCAAAGUGGCUGUGGCUAGACUGCG [A6U U20C C46G] | 1.05 |
| GGCAGAGCUCAACACAGCGCGGCAAAGUGGCUGUGGCUACACACCC [U20C G40C U43A G44C] | 0.03 |
| GGCAGAGCUCAACACAGCGGUGCAAAGUGGCUGUGGCUAGCCUGCC [U20G G21U A41C] | 0.05 |
| GGCAGAGCUCAACACCGCGCGGCAAAGUGGCUGUGGCUCGACUGAC [A16C U20C A39C C45A] | 0.02 |
| GGCAGUGCUCAACACAGCGUGGCAAAGUGGGUGUGGCUAGGCUGGC [A6U C31G A41G C45G] | 0.07 |
| GGCAGAGCUCAACACAGUGUGGGAAAGUGGCUGUGGCUAGACCCCG [C18U C23G U43C G44C C46G] | 0.01 |
| GGCAGAUCUCACCACAGCGUGGCAAAGUGGCUGUUGCUACACUGCC [G7U A12C G35U G40C] | 0.01 |
| AGUAGAGCUAAACACAGCGUGGGGAAGUGGCUGUGGCUAGACUGCC [G1A C3U C10A C23G A24G] | 0.11 |
| GGCAGAGCUCUAUACAGCGUGGCAAAGUCGCUGUGGCUAGACUGCC [A11U C13U G29C] | 0.02 |
| GGCAGAGCUAACCACAGCGUGGCAAAGUGCCUGUGGCUAGCCUGCC [C10A A12C G30C A41C] | 0.02 |
| GGCCGAGCUCAACACAGCGUAGCAACGUGGCUGUGGCUAGACUACC [A4C G21A A26C G44A] | 0.05 |
| GGCAGAGCUCAACACAGCGUGGCAAAGUAGCAGUGGCUUGAAUGCC [G29A U32A A39U C42A] | 0.03 |
| GGCAGGGCUCAGCACAGCGUGGCAAAGUUGCUGAGGCUAGACUGCC [A6G A12G G29U U34A] | 0 |
| GGCAGAGCUCCACAAAGCGUGGCAAAGAGGCUGUGGCAAGACUGCG [A11C C15A U28A U38A C46G] | 0 |
| CGCAGAGCUCAACACAGCGUGGGAAAGUGGCUGUGGCUAUACUGCC [G1C C23G G40U] | 0.02 |
| GGCAGUGCUCAACACAGUGUGGCAGAGUGGCUGUGGCUAGACUGCC [A6U C18U A25G] | 0.11 |
| GGCUGCGCACAACACAGAGUGGCAAAGAGGCUGUGGCUAGACUGCC [A4U A6C U9A C18A U28A] | 0.06 |
| GGCGGAGCGCAACACAGCGUGGCAAAGUGGCUGUGCCUAGACGGCC [A4G U9G G36C U43G] | 0 |
| UGCAGAGCUCAACACAGCGUGGCAAAGUGGCUGUUGCUAGGCUGCC [G1U G35U A41G] | 0.12 |

| Variant | self-cleavage |
| --- | --- |
| GGCAGAGCUCAACACAGCGUGGCAUAGUGGCUUUGGCUAGACUCCC [A25U G33U G44C] | 0.06 |
| GGCAGAGCUCAACACAGCGUGGCAAACUGGCUAUGGCUGGACUGCC [G27C G33A A39G] | 0.04 |
| GGCGGAGCUCAAAACAGCGUGGCAACGUGGCUGUCACUAGACUGCC [A4G C13A A26C G35C G36A] | 0.04 |
| GCCAGAGCUGAACACAGCGUGGCAAAGUGUCUGUGGCUAGACUGCC [G2C C10G G30U] | 0.01 |
| AGCAAAGCUCACAACGGCGUGGCCAAGUGGCUCUGGAUAGACUGCC [G1A G5A A12C C13A A16G A24C G33C C37A] | 0.01 |
| GUCAGAGCUCAACACAGCGUGGCAAAGUGGAUGUGGCUAGACUGUC [G2U C31A C45U] | 0.09 |
| GGCAGAACUCACCAUAGCGUGGCAAAGUGUCUGUGACUAGACUGCC [G7A A12C C15U G30U G36A] | 0.01 |
| GGCCGAGCUCCACACAGCGUGGCAAAGUGGUUAUGGCUAGACUGCC [A4C A11C C31U G33A] | 0.03 |
| GGCAGAGCUCAACACAGUGUGGCAAAGUGCCCGUGGCUAGACUGCC [C18U G30C U32C] | 0.48 |
| GGCAGAGCUCAACACAGCGCGGCAAAGUAGCUGUGGCUAUACUGCC [U20C G29A G40U] | 0.2 |
| GGCAGAGAUCAACACAGCGUGGCAAAGUGUCUGUGGCUACACGGCC [C8A G30U G40C U43G] | 0.23 |
| GGUAGAGCUCUACACAGCCUAGCAAAGUGGCUGUGGCUAGACUGCC [C3U A11U G19C G21A] | 0.02 |
| GGCAGAGCUCAACACAGCGUGUCGAAGUGGCCGCGGCUAGACUGCC [G22U A24G U32C U34C] | 0.07 |
| GGCAGAGAUCAACACAUCGUGGCAGAGUGGCUGUGGUUAGACUGCC [C8A G17U A25G C37U] | 0.05 |
| GGCAGAGCUGAACACAGCGUGGUGAAGUGGCUGUGGCUAGACUUCC [C10G C23U A24G G44U] | 0.03 |
| GGUAGAGCUCAACACAGUAUGGCGAAGUGGCUGUGGCUAGACUGCC [C3U C18U G19A A24G] | 0.07 |
| GGCAGAGCUCAACACAGCGAGGCAAAAUGGCUGUGGCUAGCCUGCC [U20A G27A A41C] | 0.07 |
| GGCAGAGCUCAACAGAGCGUGGCAAAGUGGCUGUGGAUACACUGCA [C15G C37A G40C C46A] | 0.02 |
| AGCAGAGCUGAACACAGCGUGGUAAAGUGUCUGUGGCUAGACUGCC [G1A C10G C23U G30U] | 0.2 |

| Variant | self-cleavage |
| --- | --- |
| AGCAGAGCUCAACACAGCGUAGCAAAGUGGCUGUGGCUAGACUGGC [G1A G21A C45G] | 0.19 |
| UGCAGAGUUCAACACAGCGUGGCAAAGUGGCUGUGGCUAAACUGGC [G1U C8U G40A C45G] | 0.03 |
| GGCAGAUCUCAACACAGCGUGGCAGAGUGGCUGUGGCUGGACAGCC [G7U A25G A39G U43A] | 0.19 |
| GGCAGAAACCAACACAGCGUGGCAAAGUGGCUGUGGCUACCCUGCC [G7A C8A U9C G40C A41C] | 0.09 |
| GGCAGAGCUCACCACAUCGUGGCAAAGCAGUUGUGGCUAGAUUGCC [A12C G17U U28C G29A C31U C42U] | 0.01 |
| GGAAGAGCUCAACACGGCGUGGCAAAUUGGCUGCGGCUAGACUGCC [C3A A16G G27U U34C] | 0.07 |
| GGCAGAGCUCAACUCAGCCUGGCAAAGUGGAUGUGGCUAGACUGCC [A14U G19C C31A] | 0.06 |
| GGCAAAGCUCAACAAAGCGUGCCAAAAUGGCUGUGUCUAGACUGCC [G5A C15A G22C G27A G36U] | 0.04 |
| GGCAUAGCUCAACAAACCGUGGCAAAGUGGCUGUGGCUAGAAUGCC [G5U C15A G17C C42A] | 0.06 |
| GGCAGAGCUCAACACAGUGUGGGAAAGUGGUUAUGGCUAGACUGCC [C18U C23G C31U G33A] | 0.02 |
| GGCAGAGCUCAUCAUAGCGUGGCAAAGUGGCUGUAGCUAGACUGCC [A12U C15U G35A] | 0.19 |
| GGCAGAGGUCAACACAGCGUGGCAAAGUGGCUCUGGCUAUACUGCC [C8G G33C G40U] | 0.02 |
| GGCUGAGCUCUGCACCGCGUGGCAAAGUGGCUGUGGCUAGUCUGCC [A4U A11U A12G A16C A41U] | 0.01 |
| GGCAGAGCCAAACACCGCUUGGCGAAGUGGCUAUGGUUAGAAUGCC [U9C C10A A16C G19U A24G G33A C37U C42A] | 0 |
| UGCGGAGCUCAAAACGGCGUGGCAAAGUGACUGUGGCUAGACUGCC [G1U A4G C13A A16G G30A] | 0.06 |
| GGCACAGCUCAACACAGCUUGCCAAAGUGGCUGUGGCUAGACUGCC [G5C G19U G22C] | 0.03 |
| GGCAGACCUCAACACAGCGUGGCAUAGUGGCGGGGGCUCGACUGCC [G7C A25U U32G U34G A39C] | 0.05 |
| GGCAGAGCUCAACACAGCCUGGCAAAGUGGCUGUGGCUGGAUUGCC [G19C A39G C42U] | 0.06 |
